Results from PMC12136788.
The other results are listed elsewhere or left out.

B1: chr7:7607225:7607326:+|3pUTR|ENSG00000164654|msi1|FALSE|bound_elsewhere (ssRNA)
RNA: GGGAGUUCUACAGUCCGACGAUCUUUGAGUGAUUUUGAUAUGCUUCACAGAGACAAAUGCUGCCAAAAUAAACAUCGAAGUAUAGACAUGAGUUCUGUUCAGCAGGUUGAAAAGUCUGAUUUAGAAAAACUUUCUAAGUUUUGCAACAGAGGAUUGAGCAUCA
B2: chr21:32314052:32314153:-|3pUTR|ENSG00000142207|msi1|FALSE|unique (ssRNA)
RNA: GGGAGUUCUACAGUCCGACGAUCCAUCUCAAAAAAAUAAAAAAAUAAAGUUUGUUUUUCUAUAAAAAGUCAUAACAAAGUAUUAGUAUGACUUUUUGAAUAAGUUAAUUUCUGCCAGUGUUUAAUUAUUUUAUUAAAGAAAAGCAACAGAGGAUUGAGCAUCA
B3: chr5:78476397:78476521:+|3pUTR|ENSG00000085365|msi1|total|mutant (ssRNA)
RNA: GGGAGUUCUACAGUCCGACGAUCAUAUAAGAAGUUUAUAUAAUAUGCAGUACAUUAUCCAAAAGAGAAGGCCGUUAAUGCAGCCGAAAGCCGUGGUAAUAAUUCCUUUUUAAAAAAAUUUCGGCCGUCAUACCGUAACAUUUUCAACAGAGGAUUGAGCAUCA
B4: chr8:143803364:143803465:-|CDS|ENSG00000180900|msi1|FALSE|unique (ssRNA)
RNA: GGGAGUUCUACAGUCCGACGAUCACCCUCACCGUGCUGGUCUGUGACGGCUUUGAGGCCAGCACCGACGCAGCCCUGGAGGUUAGCGAUCCCGCCCCGGGGACCGGGCCUCCCUCUGGCCCAGCCCAAGGUGUUGUGAGCCGCCAACAGAGGAUUGAGCAUCA
B5: chr9:114377124:114377225:-|CDS|ENSG00000106948|msi1|FALSE|unique (ssRNA)
RNA: GGGAGUUCUACAGUCCGACGAUCUCCGUUGAACUCAGCCCGGCAAGGUCCUGGAGCAGUGGGACAGUGAGCCUCGACCACCCUAGUGACAGCCUUGAUUCUACCUGGGAAGGAGAGACCGAUGGCCCCCAGCCCACUGCCCUGCAACAGAGGAUUGAGCAUCA
B6: ENSG00000127483:stop:overlap|stop_codon|ENSG00000127483|stop_codon|NA|stop_codon (ssRNA)
RNA: GGGAGUUCUACAGUCCGACGAUCCCAAAAAGGAGAGAGCUGAUAGUAUUCAUUCCACUCUUUUCAUAAUUGGUCAGAACAGUUAGAAAUUGCUUUUAACUAUAGUCAUGCAUUGCUUAACAAUGGGUAUACAUUCUGAGAGAUCAACAGAGGAUUGAGCAUCA
B7: ENSG00000165868:stop:overlap|stop_codon|ENSG00000165868|stop_codon|NA|stop_codon (ssRNA)
RNA: GGGAGUUCUACAGUCCGACGAUCAGCAGCCGGCCAAGCAGUUCAUGAGACAAGCUGCCUACCAGGCGGACCCUAUGGAUCUUUAGGAGUAGAUUAUGAGUUCGAAAAACUUCUGUAUAAAAUAUUUGGAGAGGAUUUUAUUGACAACAGAGGAUUGAGCAUCA
B8: ENSG00000067715:stop:overlap|stop_codon|ENSG00000067715|stop_codon|NA|stop_codon (ssRNA)
RNA: GGGAGUUCUACAGUCCGACGAUCAGGAGAAGUUUAUGAAUGAGUUGCAUAAAAUUCCAUUUCAAAGGAAAGAGAGUACCAAUUAGACAAGGGAAGAAGAUGAGAGACUGCCUGAACAGCAUCACUUUUGUAAACUGAGAGUUCCAACAGAGGAUUGAGCAUCA
B9: ENSG00000096070:stop:overlap|stop_codon|ENSG00000096070|stop_codon|NA|stop_codon (ssRNA)
RNA: GGGAGUUCUACAGUCCGACGAUCAGAAGGAUCCUGCACACAUCUUCGCAGAACCAGUCAACUUGAGUGAGGUUUUAUAUGUUUAGGUUCCAGAUUACCUGGAAUUCAUAUCCAAGCCAAUGGAUUUUUCUACUAUGAGGCGGACAACAGAGGAUUGAGCAUCA
B10: ENSG00000070961:be:win_551|CDS|ENSG00000070961|bound_else_gene|NA|bound_elsewhere_windowed (ssRNA)
RNA: GGGAGUUCUACAGUCCGACGAUCUGCAGAGCCGAAUUGAACAAGAACAGAAGUUCACUGUCAUCAGGGGUGGUCAGGUCAUUCAGAUACCUGUAGCUGACAUUACUGUUGGAGAUAUUGCUCAAGUGAAAUAUGGUGAUCUUCCAACAGAGGAUUGAGCAUCA
B11: chr5:16781720:16781826:-|CDS|ENSG00000145555|unk|FALSE|bound_elsewhere (ssRNA)
RNA: GGGAGUUCUACAGUCCGACGAUCCUUCACAGCCCCAUCAUGGAAGCUUUCGGCAAUGCGAAGACCGUGUACAACAACAACUCUAGUCGCUUUGGGAAGUUUGUUCAGCUGAACAUCUGUCAGAAAGGAAAUAUUCAGGGCGGGCAACAGAGGAUUGAGCAUCA
B12: chr2:235053981:235054083:+|3pUTR|ENSG00000130147|unk|total|mutant (ssRNA)
RNA: GGGAGUUCUACAGUCCGACGAUCCUCCUCCAUCGAGGGAGAGGCCUGAAGGGACUGCCUACUGCAGCUCGUUGCCAAUCACACCGCUUUCUAUUUGUUAAGUAUAAAUUUAAAUUUAAAAUCACUUUUUUAACGAAUGGGGGGCAACAGAGGAUUGAGCAUCA
B13: chr14:53038166:53038268:-|3pUTR|ENSG00000100523|unk|total|mutant (ssRNA)
RNA: GGGAGUUCUACAGUCCGACGAUCGAGCUUUUGGCAGAGUCUUCGGGGUUUUCCCGGUAUAAAAUCAUAUCAGCGAAGAGAGCCCGUUUGAUUUCUUUUCCCAGUUGGAUGCCUUUUAUUUAUUUCUCUUGCCUGAUUGCUCUACAACAGAGGAUUGAGCAUCA
B14: chrX:152166439:152166540:-|3pUTR|ENSG00000011677|unk|FALSE|unique (ssRNA)
RNA: GGGAGUUCUACAGUCCGACGAUCCACCACAAGCAGAUUCUCCCUGCCCACCGGCUGAACAAAGCUCCUAAGGGGUGUAUCAUUAGCUGCUGGUUGCCUUUUCAUCCAUCCUUUCCCCGUCCCCUGCUUCCUUGCCAUUGCUGGCAACAGAGGAUUGAGCAUCA
B15: chr3:69105919:69106020:+|3pUTR|ENSG00000144746|msi1|total|mutant (ssRNA)
RNA: GGGAGUUCUACAGUCCGACGAUCGUGCUGCUUCUGAUUUUUCUUGCAUUUUAAAUUCUCAGCCAACCUACAGCCAUGAUCUUCCGCACAGUGAUAUCACCAUGACUUCACAGACAUGGUCCCGAAUCUGUACCCUUACCCACACAACAGAGGAUUGAGCAUCA
B16: chr4:75597091:75597192:-|CDS|ENSG00000138769|unk|FALSE|unique (ssRNA)
RNA: GGGAGUUCUACAGUCCGACGAUCUAUAAACUAUUUAAAAUAAAAGGCUCAAAAAUUGAUGGAGAAAAAGCUGAAAAAGGCAAUAGAGCUUCAAAUGCCAGCUGUCUCCAUGACAGUAGGACAAGCCACAACAAAAUAGUGCCUCAACAGAGGAUUGAGCAUCA
B17: ENSG00000169057:stop:overlap|stop_codon|ENSG00000169057|stop_codon|NA|stop_codon (ssRNA)
RNA: GGGAGUUCUACAGUCCGACGAUCUCAAGCCUGUCGUUCCAGGACCCAGGAGGGAGAAGCAGCUGCCAGGGGAAGUCUCUUCGUAGGCGGAGGUCAGGAGUCCAAGAGGAGUGAGCAGAGUCACAGAAGCCUCUUAAAGCCUCUCAACAGAGGAUUGAGCAUCA
B18: chr5:159158860:159158961:-|CDS|ENSG00000145860|msi1|FALSE|bound_elsewhere (ssRNA)
RNA: GGGAGUUCUACAGUCCGACGAUCCCAGGAGACCUGCCCUCUGUGCCACUGCCAUCUGAAAAACUCCUCCCAGCUUCCAGGAUUAGGAACUGAGCCAGUUCUACAGCCUCAUGCUGGAGCUGAGCAAAACGUCAUGUUUCAGGACAACAGAGGAUUGAGCAUCA
B19: ENSG00000136451:be:win_2001|3pUTR|ENSG00000136451|bound_else_gene|NA|bound_elsewhere_windowed (ssRNA)
RNA: GGGAGUUCUACAGUCCGACGAUCGCUAGUGUAGAAUUGUCUGUGUUUAUUGUUUUUAUGAGUAAAUACAUGCAUUGUCAUAAUAAAAUGCAUUUCAGAGAAUAUGCAUUUUACCUUUGGGAAUAUGUUAAUUUCAGGCAGCAUCAACAGAGGAUUGAGCAUCA
B20: chr15:52550141:52550321:-|3pUTR|ENSG00000128989|msi1|total|mutant (ssRNA)
RNA: GGGAGUUCUACAGUCCGACGAUCAGAUGUCACUUCCGUAAAAUACCAAUUCCGUUUUACUUGUGGCUUAUCCCGUCCGAACUCCGCAGACUUUACUGGGACAAGUUUACUGCUCUUGCCGGAGCUCCUCUCACAAGCCGUUGUCAACAGAGGAUUGAGCAUCA
B21: chr5:90513983:90514084:+|3pUTR|ENSG00000113356|unk|FALSE|unique (ssRNA)
RNA: GGGAGUUCUACAGUCCGACGAUCAAAUACACUGAAGAUAAAGGUUAUUUCUUUUUUUAGCUUUGAAUUUGUCAUGACCAUUUUAGUCUUGCAGAUAGCAGGGCAGCCCCUUGGGGCAAGGAUUUACUCUGGGAGGUACCGUUACAACAGAGGAUUGAGCAUCA
B22: chr2:25738620:25738721:-|3pUTR|ENSG00000143970|unk|FALSE|unique (ssRNA)
RNA: GGGAGUUCUACAGUCCGACGAUCAUACAUAUUAAUGACCUGACAGUUAACAUUCUGUUGUUUAUUAUUGCCUUUCUCCACCUUAGAGAGCCAUAAAUAACUCUCUGGUGAAGUGAUUUGCUAUAAUGGGGGUGAGGAGUGGGGCAACAGAGGAUUGAGCAUCA

molecular target: MSI1 full-length (mouse, UniProt Q61474 1-362); assay: nsRBNS (natural sequence RNA bind-n-seq); RBNS binding buffer (assumed for nsRBNS): 25 mM Tris pH 7.5, 150 mM KCl, 3 mM MgCl2, 0.01% Triton X-100, 500 ug/ml BSA, 20 U/ml SUPERase-In, 4 C; UNK is unkempt and MSI1 is Musashi-1; names of the RNAs are library labels; protein concentration not given here; high values mean tight binding
Sequence of UniProt Q61474 (Q61474 whole entry): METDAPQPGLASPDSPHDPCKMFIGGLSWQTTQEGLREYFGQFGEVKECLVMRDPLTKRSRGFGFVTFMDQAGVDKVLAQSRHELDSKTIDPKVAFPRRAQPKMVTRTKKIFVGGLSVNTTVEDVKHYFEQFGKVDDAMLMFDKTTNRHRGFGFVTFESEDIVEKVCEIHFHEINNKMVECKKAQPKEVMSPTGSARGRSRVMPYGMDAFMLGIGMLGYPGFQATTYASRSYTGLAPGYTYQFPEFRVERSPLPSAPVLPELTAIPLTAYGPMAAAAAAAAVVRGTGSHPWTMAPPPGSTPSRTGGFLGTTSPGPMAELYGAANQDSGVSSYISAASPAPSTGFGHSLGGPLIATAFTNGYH

Question: B1 was tested. Which binding signal did it give?
Answer: 0.472 enrichment R

Question: B2 was tested. Which binding signal did it give?
Answer: 3.03 enrichment R

Question: B3 was tested. Which binding signal did it give?
Answer: 4.43 enrichment R

Question: Which binding signal does the source give for B4 here?
Answer: 0.309 enrichment R

Question: Which binding signal does the source give for B5 here?
Answer: 0.557 enrichment R

Question: B6 was tested. Which binding signal did it give?
Answer: 0.266 enrichment R

Question: How did the binding signal turn out when B7 was run?
Answer: 0.313 enrichment R

Question: B8 was tested. Which binding signal did it give?
Answer: 0.457 enrichment R

Question: For B9, which binding signal is on record?
Answer: 0.383 enrichment R

Question: Which binding signal does the source give for B10 here?
Answer: 0.33 enrichment R

Question: B11 was tested. Which binding signal did it give?
Answer: 0.402 enrichment R

Question: B12 was tested. Which binding signal did it give?
Answer: 0.539 enrichment R

Question: For B13, which binding signal is on record?
Answer: 0.36 enrichment R

Question: Which binding signal does the source give for B14 here?
Answer: 0.767 enrichment R

Question: With B15 as the binder, how does the binding signal read?
Answer: 0.461 enrichment R

Question: Which binding signal does the source give for B16 here?
Answer: 1.25 enrichment R

Question: For B17, which binding signal is on record?
Answer: 0.715 enrichment R

Question: How did the binding signal turn out when B18 was run?
Answer: 0.432 enrichment R

Question: Which binding signal does the source give for B19 here?
Answer: 1.18 enrichment R

Question: For B20, which binding signal is on record?
Answer: 0.351 enrichment R

Question: B21 was tested. Which binding signal did it give?
Answer: 0.573 enrichment R

Question: For B22, which binding signal is on record?
Answer: 0.474 enrichment R
